# This is one part of the list. Values were computed here from the reads of four pooled replicates and scatter widely.
# Biological target: T1, Pho4 (S. cerevisiae) (UniProt P07270)
# T1 sequence: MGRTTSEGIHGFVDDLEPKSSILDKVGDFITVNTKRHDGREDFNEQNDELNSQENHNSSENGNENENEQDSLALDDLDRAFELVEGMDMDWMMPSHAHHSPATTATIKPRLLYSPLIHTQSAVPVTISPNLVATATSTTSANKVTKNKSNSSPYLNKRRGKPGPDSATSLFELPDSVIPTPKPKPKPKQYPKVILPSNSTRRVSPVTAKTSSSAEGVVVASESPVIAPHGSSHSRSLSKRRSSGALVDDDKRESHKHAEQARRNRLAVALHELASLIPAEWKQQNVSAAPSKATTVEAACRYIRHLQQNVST
# Experiment: relative binding free energy (BET-seq); higher = weaker binding
# Details: reference: library average
row,Sequence,relative binding free energy
1,TAGTACACGTGTATGG,0.11 kcal/mol
2,GATTGCACGTGCTAGT,-0.02 kcal/mol
3,AGTGCCACGTGGGTCA,-0.2 kcal/mol
4,AGTTACACGTGGTTGT,0.1 kcal/mol
5,GAAATCACGTGACGTT,0.72 kcal/mol
6,AAGGTCACGTGGCGTG,0.03 kcal/mol
7,CGTGACACGTGAAGTG,0.24 kcal/mol
8,CAAGGCACGTGATTGT,0.08 kcal/mol
9,TGGTTCACGTGTACAG,0.47 kcal/mol
10,ATCTTCACGTGGCGTT,0.12 kcal/mol
11,TGCGTCACGTGTGTGG,0.16 kcal/mol
12,AATCACACGTGGAGGG,0.14 kcal/mol
13,GGCGGCACGTGTCGGA,0.05 kcal/mol
14,AATGTCACGTGATTAA,0.19 kcal/mol
15,TCGGACACGTGAGGGT,0.16 kcal/mol
16,CATGTCACGTGTTTGT,0.1 kcal/mol
17,TAGTACACGTGGGCAT,-0.2 kcal/mol
18,TGGTGCACGTGCTGGA,-0.05 kcal/mol
19,GGTGTCACGTGATGGT,0.24 kcal/mol
20,GGTTACACGTGTGTAA,0.17 kcal/mol
21,AGAGGCACGTGTTTGC,-0.12 kcal/mol
22,GGGGACACGTGATAGC,0.24 kcal/mol
23,AATGCCACGTGTTTGT,-0.13 kcal/mol

row,Sequence,relative binding free energy
1,GTGATCACGTGTAGTA,0.1 kcal/mol
2,AGGTACACGTGGAGTG,0 kcal/mol
3,GTCGTCACGTGTTGAT,-0.06 kcal/mol
4,GGAGACACGTGGGGAA,-0.01 kcal/mol
5,TTGGTCACGTGTTAGG,0.13 kcal/mol
6,CCGGGCACGTGCGGGT,-0.33 kcal/mol
7,AGTGACACGTGACTGG,0.09 kcal/mol
8,AGTGACACGTGTTTCA,0.06 kcal/mol
9,ATAGGCACGTGGATAG,-0.16 kcal/mol
10,GTGTCCACGTGGTGTA,0.04 kcal/mol
11,GGTGTCACGTGCTGGA,0.06 kcal/mol
12,AGGTGCACGTGTCCGT,-0.08 kcal/mol
13,ATGGTCACGTGCGTTG,0.07 kcal/mol
14,TAGTACACGTGATTAT,0.25 kcal/mol
15,GTGGGCACGTGCATGG,-0.13 kcal/mol
16,TTTTGCACGTGATGTT,0.16 kcal/mol
17,ATTCTCACGTGAAGGG,0.51 kcal/mol
18,ATTTTCACGTGTATTG,0.18 kcal/mol
19,AAGGGCACGTGCAGGT,-0.16 kcal/mol
20,TGATACACGTGGTATT,-0.06 kcal/mol
21,GTTTACACGTGATAAG,0.29 kcal/mol
22,TTAGTCACGTGGTTTC,0.06 kcal/mol
23,TAATTCACGTGGAAGG,0.26 kcal/mol

row,Sequence,relative binding free energy
1,CAGGTCACGTGGGAGA,0.05 kcal/mol
2,GGGGGCACGTGCTTTG,-0.05 kcal/mol
3,AGGGTCACGTGCAGGA,0.11 kcal/mol
4,TGGGACACGTGTGGTC,0.09 kcal/mol
5,AAGTTCACGTGTTATG,0.25 kcal/mol
6,GGGGGCACGTGGCGCT,-0.26 kcal/mol
7,GAGTTCACGTGAGGTT,0.38 kcal/mol
8,ATTTTCACGTGATGAA,0.28 kcal/mol
9,TCAATCACGTGATGGT,0.33 kcal/mol
10,ATTTGCACGTGCTTGG,-0.05 kcal/mol
11,TTGGACACGTGGTACT,-0.08 kcal/mol
12,ATGTGCACGTGAGAGA,0.17 kcal/mol
13,TCGGGCACGTGTTAGG,-0.01 kcal/mol
14,GCCTTCACGTGTTTTT,0.43 kcal/mol
15,ATTAGCACGTGTGGAG,-0.08 kcal/mol
16,GAGAGCACGTGTGTTG,-0.17 kcal/mol
17,GTGTACACGTGTCTTT,0.01 kcal/mol
18,TCGAACACGTGTAGTG,0.12 kcal/mol
19,AATGTCACGTGAAGAT,0.39 kcal/mol
20,TGGGACACGTGCAGGC,0.02 kcal/mol
21,GGTGGCACGTGTCCGA,0.05 kcal/mol
22,CGGTTCACGTGCTTGG,0.19 kcal/mol
23,CTTAACACGTGTGGTG,-0.01 kcal/mol

row,Sequence,relative binding free energy
1,CATTTCACGTGTAGTT,0.33 kcal/mol
2,CATTTCACGTGTGTGC,0.41 kcal/mol
3,CGGGGCACGTGATGAG,0.07 kcal/mol
4,TTTTACACGTGTGTTT,0.2 kcal/mol
5,TGGGGCACGTGCGGTG,-0.11 kcal/mol
6,TTGTACACGTGTTAAT,0.12 kcal/mol
7,ATTTGCACGTGGCTAT,-0.24 kcal/mol
8,GGCCGCACGTGTTTGG,0.08 kcal/mol
9,GTTAACACGTGAGGAT,0.38 kcal/mol
10,GGTCGCACGTGGGCTG,-0.14 kcal/mol
11,GCATTCACGTGTTTGG,0.28 kcal/mol
12,GATAGCACGTGGTAGA,0 kcal/mol
13,ATACGCACGTGTGAGG,-0.03 kcal/mol
14,TTGGACACGTGGTCGG,-0.03 kcal/mol
15,TGTGCCACGTGAAGAG,0.08 kcal/mol
16,TATGTCACGTGTTGTG,0.14 kcal/mol
17,CTTGTCACGTGGTTTA,-0.05 kcal/mol
18,GTGTTCACGTGAGATT,0.44 kcal/mol
19,ATTATCACGTGTGCAT,0.2 kcal/mol
20,TGCTTCACGTGGTTAA,0.11 kcal/mol
21,TTTTTCACGTGTGGCA,0.16 kcal/mol
22,ACGGTCACGTGTGATT,0.14 kcal/mol
23,CAGTTCACGTGGATGT,0.18 kcal/mol

row,Sequence,relative binding free energy
1,TGGTGCACGTGGCTCT,-0.03 kcal/mol
2,CGTTGCACGTGAGAGT,0.15 kcal/mol
3,TTGTGCACGTGTCCAG,0.01 kcal/mol
4,TGCTTCACGTGGGTGC,0.15 kcal/mol
5,TGTATCACGTGATATT,0.31 kcal/mol
6,CGTTACACGTGGAGGT,0.03 kcal/mol
7,GTTGGCACGTGTTGAA,-0.05 kcal/mol
8,TGGTTCACGTGGCAAA,0.22 kcal/mol
9,GATAACACGTGGATGT,0.1 kcal/mol
10,TTGTGCACGTGTCGTC,0.12 kcal/mol
11,ATTATCACGTGTGTGC,0.12 kcal/mol
12,GTTGTCACGTGTCTAT,0.13 kcal/mol
13,CTGTGCACGTGGTCGG,-0.18 kcal/mol
14,AGTGGCACGTGCGCGA,-0.22 kcal/mol
15,TGGTCCACGTGGTCGG,-0.2 kcal/mol
16,GTATACACGTGGAGGC,0.07 kcal/mol
17,TAACACACGTGGGTTT,-0.06 kcal/mol
18,GCGAGCACGTGTGTGG,-0.09 kcal/mol
19,GTTGGCACGTGCTGGG,-0.02 kcal/mol
20,TGGTGCACGTGTCGTG,-0.05 kcal/mol
21,TATTGCACGTGATGAT,0.13 kcal/mol
22,ATGTGCACGTGTAAGC,0.01 kcal/mol
23,GGGAACACGTGTAGGT,0.04 kcal/mol

# Source: the BET-seq Pho4 binding data (Le et al. 2018)
